# From PubChem BioAssay AID1347073 (National Center for Advancing Translational Sciences (NCATS), 2019)
# In all, about 45,000 compounds went through this assay and about 200 (0.44%) were called active. Another 7% or so got no clear call; they are omitted. Calls follow the shape of the dose curve; as a rule, active = well fitted activation curve with a large enough effect; inconclusive = small, poorly fitted or top-dose-only effect; inactive = no such curve, though single readings can be large or run the other way. Some of the results follow.
# Test: qHTS of TDP-43 Inhibitors: NCGC Sytravon Library Screen; also: 0% is about no effect; nearly all actives have a fitted effect of over 55% in size
# Conditions: yeast TDP-43 toxicity rescue, BacTiter-Glo growth, 24 h; series mostly up to 46.1 µM; growth rescue (activation): at the top concentration
# How it was run: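 TDP-43-expressing yeast, pregrown in raffinose, seeded at OD600 0.02 in galactose medium with compound for 24 hr at 30 deg C. Growth read by BacTiter-Glo luminescence, so rescue of toxicity appears as activation.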
row,SMILES,growth rescue (activation)
1,COc1ccccc1NC(=O)Nc1nnc(C(C)C)s1,inactive: 10%
2,O=C(CNC(=O)c1nn(Cc2ccccc2)c(=O)c2ccccc12)Nc1ccc(F)c(F)c1F,inactive: 2.24%
3,O=[N+]([O-])c1cc(S(=O)(=O)N2CCCC2)ccc1N/N=C1/CCCc2ccccc21,inactive: 2.71%
4,Nc1nc(SCC(=O)NN(c2ccccc2)c2ccccc2)n[nH]1,inactive: -8.42%
5,Cc1ccc(Cl)cc1NC(=O)CN1CCN(S(=O)(=O)N2CCC(C)CC2)CC1,inactive: 11.2%
6,NC(CSCc1ccccc1Cl)C(=O)O (centres undefined),inactive: 1.57%
7,COCCNC(=O)C(c1ccc(F)cc1)N(CCOC)C(=O)CCC(=O)Nc1ccccn1 (centres undefined),inactive: 9.83%
8,CN(C(=O)c1ccc(NC(=O)Cc2ccccc2)cc1)c1ccccc1,inactive: 12.2%
9,COC(=O)C1CCCCN1C(=O)c1ccc(OC2CCN(C(C)=O)CC2)c(OC)c1 (centres undefined),inactive: 10.5%
10,O=C(O)Cc1ccc(S(=O)(=O)Nc2ccccc2C(=O)O)cc1,inactive: -15.7%
11,Clc1ccc(-c2cccc3nccn23)cc1,inactive: 13.1%
12,COc1cccc(N(CC(=O)NCCSc2ccccn2)S(=O)(=O)c2ccccc2)c1,inactive: -19.5%
13,Nc1nc(-c2ccccc2)cn1/N=C/c1ccccc1,inactive: 12.7%
14,COc1ccccc1OC(=O)CCc1nc2ccccc2s1,inactive: 14.9%
15,CC(C)(O)C#Cc1ccc(C(=O)NCCC(=O)O)s1,inactive: -0.0938%
16,O=C(COC(=O)/C=C/c1cccs1)NC(=O)Cc1ccccc1,inactive: -8.25%
17,C/C(CC(=O)Nc1cccc2c1CCCC2)=N\NC(=O)COc1ccccc1,inactive: 6.96%
18,COc1cc(OC)c2cc(C(=O)N[C@@H](Cc3ccccc3)C(=O)O)n(C)c2c1,inactive: -0.573%
19,COc1ccc(S(=O)(=O)N(CC(=O)NCc2cccnc2)c2ccc(C)cc2)cc1OC,inactive: 9.95%
20,Cc1ccc(N(CC(=O)Nc2c(C)n(C)n(-c3ccccc3)c2=O)S(C)(=O)=O)c(C)c1,inactive: 6.31%
21,O=C(O)CCCC(=O)Nc1ccccc1C(=O)N1CCOCC1,inactive: -34.6%
22,N=C(N)c1ccc(Cl)cc1,inactive: -1.78%
23,CCC(C)NCCOc1cccc(Br)c1 (centres undefined),inactive: -6.96%
24,CCCc1nnc(NC(=O)CNc2ccc(F)cc2)s1,inactive: 30.8%
25,O=C(CN(C(=O)c1csnn1)c1ccc(F)cc1)NCCc1ccccc1,inactive: 3.83%
26,O=C(NC(NCc1cccnc1)C(Cl)(Cl)Cl)c1cccc2ccccc12 (centres undefined),inactive: 1.83%
27,COc1ccc(OCc2cc(C(=O)N3C[C@H]4CC[C@H]3C4)no2)c(Cl)c1,inactive: 12.6%

row,SMILES,growth rescue (activation)
1,NC(=O)c1ccc(NC(=O)COC(=O)CCC2CCCCC2)cc1,inactive: 11.9%
2,COc1ccc(/C=C/C(=O)OCC(=O)Nc2cc(S(=O)(=O)N(C)C)ccc2Cl)cc1,inactive: 12.3%
3,C=CSc1sc(Cl)c(N(C)C)c1[N+](=O)[O-],inactive: 3.27%
4,Cc1cccc(N(Cc2cc3ccccc3[nH]c2=O)C(=O)c2cccs2)c1,inactive: -2.45%
5,COc1ccc(C2N(C(C)=O)CCCN2S(=O)(=O)c2ccc(C)cc2)cc1 (centres undefined),inactive: -6.12%
6,COc1ccc(Cl)cc1NC(=O)CCNS(=O)(=O)c1cccc2nonc12,inactive: -9.15%
7,O=[N+]([O-])c1ccccc1S(=O)(=O)N1CCN(C2CCCC2)CC1,inactive: 5.19%
8,O=c1[nH]cnc2scc(-c3ccsc3)c12,inactive: 30.5%
9,CC(=O)Nc1cccc(-c2ccnc3c2CC(C(=O)Nc2cccc(OC(F)(F)F)c2)O3)c1 (centres undefined),inactive: 4.54%
10,CCOc1ccccc1NC(=O)COc1ccc(S(=O)(=O)N2CCCC2)cc1,inactive: 7.08%
11,CCn1c(SCc2ccc([N+](=O)[O-])cc2)nnc1C(C)NC(=O)c1ccc(C)cc1 (centres undefined),inactive: 22.9%
12,CCc1ccc(NC(=S)Nc2ccc3[nH]c(=O)[nH]c3c2)cc1,inactive: 7.77%
13,COC(=O)CP(=O)(c1ccccc1)c1ccccc1,inactive: -20%
14,CCC(C)(C)NC(=O)CN(Cc1ccco1)C(=O)CCC(=O)Nc1nccs1,inactive: -0.953%
15,COc1ccc(-n2ncc(C(C)NS(=O)(=O)c3cc(F)ccc3C)c2C)cc1 (centres undefined),inactive: 18.7%
16,O=[N+]([O-])c1cc(S(=O)(=O)Nc2ccccc2)ccc1NCc1cccnc1,inactive: -2.89%
17,CCN(CC)c1ccc(CNc2nc3ccccc3n2CCN2CCOCC2)cc1,inactive: -1.03%
18,C(=N\Nc1nc2ccccc2[nH]1)/c1ccc2c(c1)OCO2,inactive: 24%
19,COc1ccc(C(=O)/C=C/Nc2cc(C)ccn2)cc1,inactive: 4.21%
20,N=c1c(C(=O)NC2CCCCC2)cc2c(=O)n3ccccc3nc2n1CCc1ccccc1,inactive: -3.71%
21,COc1ccc(C2C(CC(=O)O)=C(O)C(=O)N2c2ccccc2)cc1 (centres undefined),inactive: -0.341%
22,COc1cc(CNC(C)(C)C)cc(Br)c1OCc1cccs1,inactive: 10.1%
23,O=C(Cn1c(NCCO)nc2ccccc21)Nc1cccc(S(=O)(=O)N2CCCC2)c1,inactive: 7.33%
24,O=C1CCCC2=C1C(c1ccsc1)CC(=O)N2c1ccccc1F (centres undefined),inactive: 10.9%
25,O=C(COc1ccc(Cl)cc1)Nc1ccc2oc(=O)ccc2c1,inactive: -1.74%
26,CC(=O)c1ccc(NC(=O)CSc2cn[nH]n2)cc1,inactive: -11.2%
27,COc1ccc2[nH]c(=O)c(-c3noc(-c4ccccc4)n3)cc2c1,inactive: 5.32%
